The record followed here is the RNAGym collection of RNA variant scans (doi:10.1101/gad.245936.114).

B1: tRNA (parent)
chain: CUCUCGGUAGCCAAGUUGGUUUAAGGCGCAAGACUUUAAUUUAUCACUACGAAAUCUUGAGAUCGGGCGUUCGACUCGCCCCCGGGAGAUUUUUUCCUCGAGCAA

Variants at the floor of the assay are shown more often than the library holds them. Where only a bound is given, the exact number is not on record here.

The variants in the series derive from B1. The series can be described thus: nonsense suppression (GFP-seq) (ratio to wild type); higher = more function; SUP4oc tRNA, yeast GFP reporter sort-seq. The essentials: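 Raffinose/galactose medium with 80 mg/L adenine was used to grow yeast carrying genome-integrated tRNA variants (~3% random-mutation library), RFP, and a galactose-driven GFP ochre reporter. Cells went into GFP/RFP bins, which were Illumina-sequenced, and variants with ≥100 reads and ≥30 cells were scored. Nonsense suppression (GFPSEQ) is the per-bin median GFP/RFP weighted by estimated cell share and expressed relative to the unmutated parent tRNA.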
For CUGGCGGUAGCCAAGUUGGUUUAAGGCGCAAGACUUUAAUUUAUCACUACGAAAUCUUGAGAUCGGGCGUUCGACUCGCCCCCGGGAGAUUUUUUCCUCGAGCAA, the nonsense suppression turned out to be 0.0277.
As for AUCCCGGUAGUCAAGUUGGUUUAAGGCGCAAGAAUUUAAUUUAUCACUACGAAAUCUUGAGAUCGGGCGUUCGACUCGCCCCCGGGAGAUUUUUUCCUCGAGCAA, the figure is ≤ 0.026; as for CUAUCGGCAGCCAAGUUGGUUUAGGGCGCAAGACUUUAAUUUAUCACUACGAAAUCUUGAGAUCGGGCGUUCGACUCGCCCCCGGGAGAUUUUUUCCUCGAGCAA, ≤ 0.026.
As for CUCUCGGUAGCCAAGUUGGUUUAAGACGCAAGACUUUAAUUUAUCACUACGAAAUCCUGAGAUCGGCCGUUCAACUCGCCCACGGGAGAUUUUUUCCUCGAGCAA, the figure is ≤ 0.026; as for CUCUCGGUAGGCAAGUUGAUUUAAGGCGCAAGACUUUAAUUUAUCACUACGAAAUUUUGAGAUCGGGCGUUCGACUCGCCCCCGGGAGAUUUUUUCCUCGAGCAA, ≤ 0.026.
As for CUCUCGGUAGCCAAGUUGGUUUAAGGCGCAAGACUUUAAUUUAUCACUACGAAAUCUUGAGAUCGGGCGUUCGUCUCGCGCCCCGGAGAUUUUUUCCUCGAGCAA, the figure is ≤ 0.026; as for CUCUCCGUAUCCACGUUGGUUUAAGGCUCAAGACUUUAAUUUAUCACUACGAAACCUUGGGAUCGGGCGUUCGACUCGCCCCCGGGAGAUUUUUUCCUCGAGCAA, ≤ 0.026.
Take CUCUCGGUAGCCAAGUUGUUUUAAGGCGCAAGACUUUAAUUUAUCACUACGAAAUCUUGAGAUCGGGGGUUCGACUCGCCCCCGGGAGAUUUUUUCCUCGAGCAA: the nonsense suppression was ≤ 0.026.
As for CUCCCUGUAGCCAAGUUGGUUUAAGGCGCAAGACUUUAAUUUAUCACUACGAAAUCUUGAGAUCGGGAGUUCGACUCCCCCCCGGGAGAUUUUUUCCUCGAGCAA, the figure is ≤ 0.026.
For AUCUCGGUAGCCAAGUUGGGUUAAGGCGCAAGACUUUAAUUUAUCACUACGAAAUCUUGAGAUCGGGCGUUCGACUCGCCCCCGGGAGAUUUUUUCCUCGAGCAA, the nonsense suppression is ≤ 0.026.
With CUCUCGGUAGCCAAGUUGGUUUAAGGCGCAAGACUUUAAUUUAUCACUACGAAAUCUUGAGCUCGGGCGUUCGACUCGCCCCCGAGAGAUUUUUUCCUCGAGCAA, the nonsense suppression is ≤ 0.026.
On to CUCUCGGUAGCCAAGUUGGUUUAAGGCGCAAGACUUUAAUUUAUCACUACGAAAUCUUGAGAUCGGGCGUUCGACUCGCCCCCGGUAUAUUUUUUCCUCGAGCAA, for which the nonsense suppression was ≤ 0.026.
With CUCUCGGUAGCCAAGUUGAUAUAAGGCGCAAGGCUUUAAUUUAUCACUACGAAAUCCUGAGAUCGGGCGUUCGAUUCGCCCCCGGGAGAUUUUUUCCUCGAGCAA, the nonsense suppression is ≤ 0.026.
As for CUCUGGGUAGCCAAGUUGGUUUAAGGCGCAAGACUUUAAUUUAUCACUACGAAAUCUUGAGAUCGGGCGUUCGACUCGCCCCCGGGAGGUUUUUUCCUCGAGCAA, the figure is ≤ 0.026; as for CUCUCGGUAGCCAAGUUGGCUUAAGGCGCAAUACGUUAAUUUAUCACUACGAAAUCUUGAGAUCGGGCGUUCGACUCGCCCCCGGGAGAUUUUUUCCUCGAGCAA, ≤ 0.026.
As for CUCUCGGUAGCCAAGUUGGUUUAAGGCGCAAGACUUUAAUUUAUCACUACGAAACCAUGAGAUCGGGCUUUCGACUCGCCCCCGGGAGAUUUUUUCCUCGAGCAA, the figure is ≤ 0.026; as for CUCUCGGUAGCCAAGUUGGUUUAAGGCCCAAGACUUUAAUUUAUCACUACGAAAUCUUGAGAUCGGGCGGUCGACUCGCCCCCGGGCGAUUUUUUCCUCGAGCAA, ≤ 0.026; as for CUCUCGGUAGCCAAGGUGGUUUAAGGCGCAAGACUUUAAUUUAUCACUACGAAAUCUUGAGAUCGGGCGUUCGACUCCCCCCCGGGAGAUUUUUUCCUCGAGCAA, 0.113.
As for CUCUAGGUAGCCGAGUUGGUUUAAGGCGCAAGACUUUAAUUUAUCACUACGAAAUCUUGAGAUCGGGCGUUCGACUCGCCCCCGGGAGAUUUUUUCCUCGAGCAA, the figure is ≤ 0.026; as for CUCUCGGUAGCCAAGUUGGUUUAAGGCGCAAGACUUUAAUUUAUCACUACGAAAUGUUGAGCUCGGGCGUUCGACUCGCCCCCGGGAGAUUUUUUCCUCGAGCAA, ≤ 0.026.
Take CUCUCGGUAGCCAAGUUGGUUUAAGGCGCAAGACUUUAAUUUAUCACUACGAAAGCUUGAGAUCGGGCGUUCGACUCGCCCCCGGGUGAUUUUUUCCUCGAGCAA: the nonsense suppression is ≤ 0.026.
As for CUCUCGGUAGCCAAGUUGGCUUAGGGCGCAAGACUUUAAUUUAUCACUACGAAAUCUUGAGAUCGGGCGUUCGACUCGCCCACGAGAGAUUUUUUCCUCGAGCAA, the figure is ≤ 0.026; as for CUCUCGGUAGCCAAUUUGGUUUAACGCGCAAGACUUUAAUUUAUCACUACGAAAUCUUGAGAUCGGGCGUGCGACUCGCCCCCGGGAGAUUUUUUCCUCGAGCAA, ≤ 0.026.
Regarding UUCUCGGUAGCCAAGUUGGUUUAAGGCGCAAGACUUUAAUUUAUCACUACGAAAUUAUGAGAUCGGGCGUUCGACUCGCCCCCGGGAGAUUUUUUCCUCGAGCAA, the nonsense suppression is ≤ 0.026.
As for CUCUCGGUAGCCAAGUUGGUUUAAGGCGCAAGACUUUAAUUUAUCACUACGAAAUCUUGAGAUCGGGCGUGCGACCCGCCCCCUGGAGAUUUUUUCCUCGAGCAA, the figure is ≤ 0.026; as for CUCUUGGUAGCCAAGUUGGUUUAAGCCGCAAGACUUUAAUUUAUCACUACGAAAUCUUGAGAUCGGGCGUUCGACUCGCCCCCGGGAGAUUUUUUCCUCGAGCAA, ≤ 0.026; as for CUCUCGGUAGCCAAUUUGGUUUAAGGCGCAAGACUUUAAUUUAUCACUACGAACUCUUGAGAUCGGGCGUUCGACUCGCCCCCGGGGGAUUUUUUCCUCGAGCAA, ≤ 0.026.
